Target: the molecule itself
Assay: dynamic light scattering; 43 µM PrLD-less TDP-43 in 20 mM Tris-HCl, pH 8.0, 300 mM NaCl, 5 mM DTT, 25 °C; apparent hydrodynamic diameter compared with values expected for monomer, dimer and higher-order oligomers

B1: PrLD-less TDP-43 (TAR DNA-binding protein 43, […], devoid of the prion-like domain) (domain or fragment)
chain: not shown
notes: stop codon introduced at residue 261; Unlabelled in SEC and DLS; also called PrLD-less protein; source: E. coli C41(DE3), purified (Ni-NTA, DEAE anion exchange, SEC)
stoichiometry N: 2
